# The campaign covered roughly 120,000 compounds. About 5,300 (4.4%) were called active. The inconclusive results got no clear call from the source; some entries with a clear call stand among them for comparison. The call rests on the fitted dose curve; in most records, active means well fitted inhibition curve with a large enough effect; inconclusive means small, poorly fitted or top-dose-only effect; inactive means no such curve, though single readings can be large or run the other way. A potency beside an inconclusive call is a rough fit, not a confirmed value.
# Experiment: qHTS Primary assay for Inhibitors of Plasmodium falciparum Dd2 growth in vitro; further: nearly all actives have a fitted effect of over 65% in size;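 on activity, negative = inhibition: plate controls were DMSO vehicle for no effect and reference drug for full effect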
# Conditions: P. falciparum Dd2 growth, SYBR Green, 72 h; activity, negative = inhibition: at 28.9 µM (top of the series) unless noted; series mostly up to 28.9 µM
# In short: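 Readout: SYBR Green fluorescence, 485 nm excitation, 535 nm emission, after ~16 h lysis at 37C. Before that, Dd2-infected red cells (2.5% hematocrit) grew 72 h with compound, 29 uM top final concentration.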
# Potency means the concentration at half of the fitted maximal effect; tags describe the fitted curve by direction and shape.
SMILES,Potency,outcome,"activity, negative = inhibition"
CC(=O)N1CCC2(CC1)CCN(Cc1cccs1)c1ccccc1O2,"inconclusive: 8.91 µM [inhibitor, partial curve, poor fit]",,
COc1ccc(-c2nnc(SCC(=O)NCc3ccccc3)nc2-c2ccc(OC)c(OC)c2)cc1OC,active: 8.91 µM,,
CCN(CC)C(=O)C(C)[C@@H]1CC[C@@]2(C)CC[C@H](NC(=O)c3ccccc3)[C@@H](C)[C@@H]2[C@H]1O (stereo partly specified),"inconclusive: 11.2 µM [inhibitor, partial curve, poor fit]",,
O=C(CCC[C@@H]1[C@H]2CCCN3CCC[C@@H](CN1S(=O)(=O)c1cccc(F)c1)[C@@H]23)N1CCOCC1,"inconclusive: 17.8 µM [inhibitor, single point]",,
C1CC(Cc2noc(C3CCOCC3)n2)CN1 (stereo unspecified),inactive,,
COc1cccc(CNC(=O)c2ccc3c(c2)N(Cc2ccc(C(F)(F)F)cc2)C(=O)c2ccccc2S3)c1OC,"inconclusive: 3.98 µM [inhibitor, single point]",,
CN1CCN(C(=O)c2cnn(-c3cccc(Cl)c3)c2C2CCN(C(=O)OC(C)(C)C)CC2)CC1,"inconclusive: 11.2 µM [inhibitor, single point]",,
N#Cc1ccccc1S(=O)(=O)N1CCCC(c2nc3c(nnn3Cc3cccc(Cl)c3)c(=O)[nH]2)C1 (stereo unspecified),"inconclusive: 11.2 µM [inhibitor, single point]",,
Cc1noc(C)c1-c1cc2c(c(-c3cccc(CO)c3)c1)C(=O)N(C)C2=O,inactive,,
COCc1nncn1C1CCN(C(=O)c2ccc(F)cc2)CC1,inactive,,
Cc1ccc2nc(CO[C@H]3CN(c4ccc(C#N)cn4)C[C@H]3F)[nH]c2c1,"inconclusive: 8.91 µM [inhibitor, partial curve, poor fit]",,
COc1ccc(NC(=O)Cn2cccc2-c2nc(-c3ccccc3)no2)cc1,active: 3.16 µM,,
O=C(CCc1nc2ccccc2s1)N1[C@H]2CC[C@@H]1c1cnc(-c3ccccc3)nc1C2,"inconclusive: 11.2 µM [inhibitor, single point]",,
COc1ccc(N2CC(C(=O)NCc3cccc(OC)c3)NC2=O)cc1 (stereo unspecified),inactive,,
Cc1ccc(C(=O)c2cn(Cc3ccccc3F)c3cc4c(cc3c2=O)OCO4)cc1,"inconclusive: 11.2 µM [inhibitor, partial curve]",,
Cc1cn2c(=O)cc(COC(=O)c3cccc(NC(=O)COc4ccc(Cl)cc4)c3)nc2s1,inactive,,
COC(=O)c1c(NC(=O)COc2ccccc2Cl)sc2c1CCC(C(C)(C)C)C2 (stereo unspecified),"inconclusive: 10 µM [inhibitor, single point]",,
COc1ccc(C(=O)N2CCCC(c3nc(-c4ccccc4)no3)CCNC(=O)CC2)c(OC)n1 (stereo unspecified),active: 11.2 µM,,
CCCc1noc(-c2cn(C3CCN(C(=O)c4ccc(C)c(F)c4)CC3)nn2)n1,inactive,,
Fc1ccc(C(Nc2ccc(Cl)c(C(F)(F)F)c2)c2nnc(-c3ccccc3)o2)cc1 (stereo unspecified),"inconclusive: 1 µM [inhibitor, full curve, poor fit]",,
O=C(c1cn2ccsc2n1)N1CCn2nc(C(O)c3ccccc3)cc2C1 (stereo unspecified),inactive,,
Cc1ccccc1N1CCN(C(=O)[C@@]23CCCC[C@H]2N(C)C(=O)CC3)CC1,inactive,,

SMILES,Potency,outcome,"activity, negative = inhibition"
O=C(Nc1ccc(F)cc1)N1CCN2C(=O)N(C3CCOCC3)C[C@H]2C1,inactive,,
CCOc1cc(=O)n2c(c1C(=O)Nc1ccc(SC)cc1)CCCC2,inactive,,
CCN1CCN(C(=O)c2ccc3c(c2)N(Cc2ccccc2F)C(=O)c2ccccc2S3(=O)=O)CC1,"inconclusive: 1.78 µM [inhibitor, partial curve, poor fit]",,
CCOc1ccc(-c2cc(CCCC(=O)NCCc3ccc(OCC)c(OCC)c3)no2)cc1,"inconclusive: 10 µM [inhibitor, partial curve]",,
COC(=O)CCC(=O)N1CCCC(N2CCN(c3cccc(Cl)c3)CC2)C1 (stereo unspecified),inactive,,
Cc1ccc(NC(=O)Nc2ccc3nc(N4CCN(C)CC4)cc(C)c3c2)cc1C,"inconclusive: 10 µM [inhibitor, partial curve, poor fit]",,
COc1ccc(CC2CN(Cc3cccc(-n4cccn4)c3)CCO2)cc1 (stereo unspecified),"inconclusive: 20 µM [inhibitor, single point]",,
COc1ccccc1CCC(=O)N1c2ccccc2CC1c1nc(C2CC2)no1 (stereo unspecified),,inactive [at 5.79 µM],
O=C(C1CCC1)N1CCNc2cnc(Nc3ccccc3)nc2C1,inactive,,
COc1ccc2cc3cc(C(=O)Nc4ccccc4C)oc3nc2c1,"inconclusive: 10 µM [inhibitor, single point]",,
Cn1cccc(C(=O)N2C[C@@H](CN3CCOCC3)C[C@H](CO)C2)c1=O,inactive,,
COc1ccc(NC(=O)CSc2nc(C)cc(C)c2C(=O)Nc2cccc(C)c2)cc1,"inconclusive: 12.6 µM [inhibitor, single point]",,
CCn1cc(CN(C)C(=O)CCC[C@H]2NC[C@@H]3C[C@H]2CN(Cc2ccccc2)C3)c(C)n1,inactive,,
COCCN1C(=O)CO[C@H]2CN(C(=O)c3ccc(F)cc3)C[C@H]21,inactive,,
COCCN1C(=O)c2ccccc2C(C(=O)NC2CCCCCC2)C12CCCCC2 (stereo unspecified),inactive,,
O=C(c1ccccc1Cl)N1CCN(CCc2ccccn2)CC1,active: 3.55 µM,,
O=C(c1ccccc1Br)N1CC(n2cc(COc3ccc(F)cc3)nn2)C1,active: 11.2 µM,,
CCOc1ccccc1CN1C[C@@H]2C(=O)N(CCN3CCc4ccccc4C3)C(=O)[C@@H]2C1,"inconclusive: 0.0708 µM [inhibitor, full curve, poor fit]",,
Cc1ccc(N2CC(c3noc(-c4cc5ccccc5[nH]4)n3)CC2=O)cc1 (stereo unspecified),inactive,,
Cc1cccc(-n2ncc(C(=O)NCc3ccco3)c2C2CCN(C(=O)OC(C)(C)C)CC2)c1,active: 11.2 µM,,
CN1C(=O)[C@@H]2C[C@@H](CN2C2CCCC2)Oc2ccccc21,"inconclusive: 17.8 µM [inhibitor, partial curve, poor fit]",,
COc1cc2c(cc1-c1nccn1-c1ccc(NC(C)=O)cc1)OCCO2,inactive,,

SMILES,Potency,outcome,"activity, negative = inhibition"
Cc1ccc(N2CCN(C(=O)c3c(C)oc4nc(C)nc(N5CCCC5)c34)CC2)c(C)c1,"inconclusive: 17.8 µM [inhibitor, single point]",,
O=C1Nc2ccccc2CC12CCN(Cc1ccc(F)cc1)C2 (stereo unspecified),"inconclusive: 2.51 µM [inhibitor, full curve, poor fit]",,
C#C[C@H]1CN2CC[C@H]1C[C@@H]2CNC(=O)c1ccc(N(C)C)cc1,"inconclusive: 11.2 µM [inhibitor, partial curve]",,
O=C(c1ccccc1)N1CC2(CCCCN2CC2CC2)Cc2ccccc21 (stereo unspecified),"inconclusive: 11.2 µM [inhibitor, single point]",,
COc1ccc(-n2c(SCC(=O)NCc3ccccc3)nc3n[nH]c(C)c3c2=N)cc1,"inconclusive: 10 µM [inhibitor, single point]",,
CN(C(=O)c1oc(=O)c2ccccc2c1-c1ccccc1)c1cccc(Cl)c1,"inconclusive: 20 µM [inhibitor, single point]",,
CCc1ccc(NC(=O)c2ccc3c(c2)N(CC)C2CCCCN2C3=O)cc1 (stereo unspecified),"inconclusive: 2.82 µM [inhibitor, single point]",,
CCN1CCN(CCCNC(=O)c2ccc3c(c2)sc2nc(-c4ccc(C)cc4)cn23)CC1,"inconclusive: 3.98 µM [inhibitor, single point]",,
COc1ccc(-c2ccc3nnc(CNC(=O)c4ccc(OC)nc4OC)n3n2)cc1,inactive,,
COCC(=O)NC[C@H]1CCN(Cc2ccc(Br)o2)C[C@H]1N(C)C,"inconclusive: 0.398 µM [inhibitor, partial curve, poor fit]",,
COc1ccc(N2Cc3c(ncnc3N3CCOCC3)N(C)CC2=O)cc1,inactive,,
O=C1CO[C@H]2CCN(Cc3ccc4c(c3)CCO4)CC[C@@H]2N1Cc1ccccc1,"inconclusive: 1.26 µM [inhibitor, full curve, poor fit]",,
CC(C)(C)c1ccc(S(=O)(=O)N2CCN(C(=O)c3cc(-c4ccc(Br)cc4)n[nH]3)CC2)cc1,"inconclusive: 1.78 µM [inhibitor, partial curve, poor fit]",,
CCc1ccccc1S(=O)(=O)N1CCC2(CC1)C(=O)N(CC)c1ccccc12,"inconclusive: 20 µM [inhibitor, single point]",,
COC(=O)[C@@H](Cc1cccnc1)NC(=O)[C@H]1CN(S(=O)(=O)c2ccccc2)CCN1S(C)(=O)=O,inactive,,
Cc1cccc(-c2noc(-c3cc(-c4ccc(F)cc4)n[nH]3)n2)c1,,,inconclusive: -35.9% [inhibitor] [at 5.79 µM]
COc1ccccc1-c1[nH]nc2ncc(C(=O)N3C[C@@H](C)O[C@@H](C)C3)nc12,"inconclusive: 31.6 µM [inhibitor, partial curve, poor fit]",,
CN(C)CCCNC(=O)C[C@H]1NC(=O)c2ccccc2NC1=O,inactive,,
O=C1CCN(S(=O)(=O)c2ccccc2)CCCN(C(=O)c2c[nH]c3ccccc23)CCN1,"inconclusive: 17.8 µM [inhibitor, single point]",,
Cc1ccc(C(=O)N2CCC(N3C(=O)C4(CCCCC4)C3c3ccncc3)CC2)s1 (stereo unspecified),"inconclusive: 8.91 µM [inhibitor, partial curve, poor fit]",,
CO[C@H]1C(=O)N(C2CCN(S(=O)(=O)c3c(C)noc3C)CC2)[C@H]1c1ccncc1,inactive,,
O=C(c1nc(-c2ccc(Cl)cc2)c2cnccn12)N1CCOCC1,"inconclusive: 35.5 µM [inhibitor, single point]",,

# — PubChem BioAssay AID1347417 (National Center for Advancing Translational Sciences (NCATS), 2020)
